# Source: PubChem BioAssay (NCATS)
# “And” between values parts separate entries of the source, which are not always exact repeats. Equal values may be shown once. This list was built around the results that the source calls inconclusive (neither active nor inactive); the mix of calls is not that of the screen. For some assays here: A potency beside an inconclusive call is a rough fit, not a confirmed value. The source made the active and inactive calls. Unless noted, the call rests on the fitted dose curve; in most records, active means well fitted curve in the direction sought with a large enough effect; inconclusive means small, poorly fitted or top-dose-only effect, or another doubt; inactive means no such curve, though single readings can be large; an effect the other way counts as inactive or inconclusive.
# Tests used:
# [1] = qHTS for differential inhibitors of proliferation of Plasmodium falciparum line 7G8 (AID 1815);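 further: parasite growth measured after three days of incubation; plate controls were vehicle wells for no effect and reference inhibitor wells for full effect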
# [2] = qHTS for differential inhibitors of proliferation of Plasmodium falciparum line W2 (AID 1883); conditions: Potency: Plasmodium falciparum W2 proliferation inhibition;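 further: parasites grown with compound for 72 h before lysis and staining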; further: potency means the concentration at half of the fitted maximal effect;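 on activity change, negative = inhibition: 0% = vehicle wells and -100% = control inhibitor wells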
# [3] = target: RecQ-like DNA helicase BLM (Homo sapiens) (UniProt P54132); assay: qHTS Validation Assay for Inhibitors of Bloom's syndrome helicase (BLM) (AID 2364); further: potency means the concentration at half of the fitted maximal effect
# Outline: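 BLM 50 nM in 25 mM Tris-HCl pH 8.0, 5 mM NaCl, 2 mM MgCl2, 1 mM DTT, 0.01% Tween-20, 2.5 ug/ml poly(dI-dC); 15 min cpd preinc, RT. Start: 200 nM forked DNA + 2 mM ATP (final). TAMRA read, 2 reads 2 h apart.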
# [4] = target: ATP-dependent 6-phosphofructokinase (Trypanosoma brucei brucei) (UniProt O15648); assay: qHTS Validation Assay to Find Inhibitors of T. brucei phosphofructokinase (AID 485368); further: potency means the concentration at half of the fitted maximal effect
# Outline: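 Enzyme reaction in triethanolamine buffer pH 8.0 with 5 mM MgCl2, 0.01% Tween20 and 0.1% BSA; PFK 1.25 nM, F6P 0.5 mM, ATP 0.1 mM, 45 min RT. ADP quantified by ADP-Glo.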
# [5] = Quantitative high throughput screen for delayed death inhibitors of the malarial parasite plastid, 96 hour incubation (AID 488745);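 further: luciferase-expressing P. falciparum in erythrocytes at 2% hematocrit and 0.1% parasitemia; on the % scale 0 is the no-effect control and ±100 the full control effect; nearly all actives have a fitted effect of over 70% in size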
# Outline: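 Infected erythrocytes were added to compound in Albumax-supplemented RPMI 1640 at 0.1% parasitemia and 2% hematocrit (final), incubated 96 h at 37 C under 5% CO2, then luciferase reagent was added and luminescence measured.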
# [6] = target: Thioredoxin reductase 1, cytoplasmic (Rattus norvegicus) (UniProt O89049); assay: qHTS Assay for Inhibitors of Mammalian Selenoprotein Thioredoxin Reductase 1 (TrxR1) (AID 488773); conditions: Potency: inhibition; further: potency means the concentration at half of the fitted maximal effect; nearly all actives have a fitted effect of over 40% in size
# Outline: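 Steps: enzyme (90 nM) plus NADPH (400 uM final), 5 min at ~22 deg C; compound added, 15 min; selenite (400 uM final) added; fluorescence followed for 8 min. Concentration-response curves derived from the normalized delta values.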
# [7] = target: D(1A) dopamine receptor (Homo sapiens) (UniProt P21728); assay: HTS Assay for Allosteric Agonists of the Human D1 Dopamine Receptor: Primary Screen for Agonists (AID 488981); conditions: Inducible HEK293 T-REx D1 cells, calcium-flux fluorescence, 180 s kinetic; at 41.8 µM (top of the series); further: 0% is about no effect
# Outline: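 Tetracycline-induced HEK293 T-REx cells force-coupled to calcium signalling were incubated overnight at 30 C and dye-loaded at room temperature. Calcium flux over 180 s after compound addition flagged agonists; a further 180 s read after EC20 dopamine flagged potentiators.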
# [8] = target: Peptidyl-prolyl cis-trans isomerase NIMA-interacting 1 (Homo sapiens) (UniProt Q13526); assay: qHTS Validation Assay to Find Inhibitors of Pin1 (AID 504536; active means well fitted inhibition curve with a large enough effect in the polarisation, with a control signal flat, not every such curve was filed as active; inconclusive means small, poorly fitted or top-dose-only effect, or effect the other way; the % refers to the polarisation; further: potency means the concentration at half of the fitted maximal effect)
# Outline: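 Fluorescence polarization competition: compounds (titration) displace HiFluor-488-labeled Pin1-1b peptide from Pin1 (0.3 uM final) in pH 7.5 HEPES buffer with DTT, 10 min at room temperature; %Activity normalized to no-enzyme wells, curves fitted.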
# [9] = qHTS for Inhibitors of ATXN expression: Validation (AID 588378); further: on the % scale 0 is the no-effect control and ±100 the full control effect; nearly all actives have a fitted effect of over 75% in size
# Outline: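 HEK293 cells carrying ATXN2-firefly luciferase reporter, treated with compound 24 h at 37 °C. Viability read first by CellTiter-Fluor (405/525 nm), then reporter expression by Bright-Glo luminescence; controls were a known ATXN2 expression inhibitor and a luciferase inhibitor.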
# [10] = test system: Zika virus NS2B-NS3 protease (unlinked); assay: Optimization of GU AMC qHTS for Zika virus inhibitors: Unlinked NS2B-NS3 protease assay (AID 1347151); conditions: recombinant ZIKV NS2B-NS3 protease, fluorogenic AMC substrate; activity change, negative = inhibition: at 52.5 µM (top of the series) unless noted; further: nearly all actives have a fitted effect of over 80% in size; further: potency means the concentration at half of the fitted maximal effect;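 on activity change, negative = inhibition: 0% = no-inhibitor control and -100% = no-enzyme control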
# Outline: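 Noncovalent NS2B hydrophilic domain–NS3 protease complex (25 nM final) in 10 mM Tris-HCl pH 8.0, 0.01% Tween 20; AMC substrate, room temperature 15 min (~20% conversion); fluorescence change normalized, 4-parameter Hill fit.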
# [11] = test system: Zika virus NS2B-NS3 protease; assay: Primary screen GU AMC qHTS for Zika virus inhibitors (AID 1347154);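 further: 0% = no-inhibitor control and -100% = no-enzyme control; nearly all actives have a fitted effect of over 70% in size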
# Outline: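 Unlinked Zika NS2B hydrophilic domain/NS3 protease domain noncovalent complex (25 nM final) in 10 mM Tris-HCl pH 8.0, 0.01% Tween 20, with AMC peptide substrate. Fluorescence (ex 340, em 450 nm) change over 15 min, room temperature; percent inhibition fitted to 4-parameter Hill equation.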
# [12] = target: Lysine-specific demethylase 5B (Homo sapiens) (UniProt Q9UGL1); assay: Optimization screen for KDM5B Histone Demethylases FDH coupled qHTS against the LOPAC library (AID 1347166); conditions: KDM5B demethylation, FDH-coupled NADH fluorescence (FDH is formaldehyde dehydrogenase); activity, negative = inhibition: at 57.5 µM (top of the series) unless noted; further: potency means the concentration at half of the fitted maximal effect
# Outline: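 KDM5BDeltaAP (200nM final) preincubated 10 min with compound, then 12.5uM H3K4Me3, 25uM a-ketoglutarate, ascorbate, Fe(II), NAD+ and FDH added; 50mM HEPES pH 7.5, 0.01% Tween-20. NADH fluorescence (340/450 nm) change over 30 min, room temperature.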
# [13] = target: Calcium and integrin-binding protein 1 (Homo sapiens) (UniProt Q99828); assay: Validation qHTS for Identification of Calcium Integrin Binding protein 1 (CIB1) Competitor (AID 1508618); further: potency means the concentration at half of the fitted maximal effect
# Outline: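 Displacement of FITC-alphaIIb peptide (100 nM) from CIB1-GST (1 uM) is monitored by polarization in quantitative HTS format; buffer carries 5 mM CaCl2 and 125 mM NaCl at pH 7.4, incubations are at room temperature.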
# [14] = target: Papain (Carica papaya) (UniProt P00784); assay: Primary qHTS assay for inhibitors of the protease papain (AID 1645873);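 further: papain turnover of Z-FR-AMC read as the AMC fluorescence gain over 10 min; on the % scale 0 is the no-effect control and ±100 the full control effect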
# [15] = target: Cytochrome P450 1A2 (Homo sapiens) (UniProt P05177); assay: p450-cyp1a2 (AID 410; calls by dose curve; further: potency means the concentration at half of the fitted maximal effect)
# Outline: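 Luminescent readout of luciferin formed from Luciferin-ME by human CYP1A2; data normalized against complete inhibition by 57 uM furafylline. Enzyme 20nM, substrate 100uM at Km, 100mM KPO4 buffer, 60 min reaction at room temperature.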
# [16] = target: 3',5'-cyclic-AMP phosphodiesterase 4B (Homo sapiens) (UniProt Q07343); assay: qHTS Assay for Inhibitors of PDE-IV (AID 607; active means well fitted activation curve with a large enough effect in the main read-out, with a control signal flat, not every such curve was filed as active; inconclusive means small, poorly fitted or top-dose-only effect, or effect the other way, or a change in a side signal; further: potency means the concentration at half of the fitted maximal effect); conditions: HEK293 ACTOne CNG channel cells, membrane potential fluorescence; activation (PDE inhibition): at 22.9 µM (top of the series)
# Outline: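 The readout is membrane depolarisation from a cAMP-sensing CNG channel, detected with a potential dye at ex 535/em 590. Cells were HEK293-derived (endogenous PDE-IV) at 1000 cells/well, titrated up to 22.9 uM final.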
# [17] = target: Cytochrome P450 3A4 (Homo sapiens) (UniProt P08684); assay: qHTS Assay for Inhibitors and Substrates of Cytochrome P450 3A4 (AID 884); conditions: recombinant CYP3A4, Luciferin-PPXE luminescence; activity change, negative = inhibition: at 57.1 µM (top of the series); further: on the % scale 0 is the no-effect control and ±100 the full control effect; nearly all actives have a fitted effect of over 50% in size
# Outline: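 20 nM human CYP3A4 with 25 uM Luciferin-PPXE (at KM) in 200 mM KPO4, preincubated 10 min with compound; NADPH regeneration started a 60 min RT reaction. Luciferin detected by luminescence, normalized to 57 uM ketoconazole as full inhibition.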
# [18] = target: Cytochrome P450 2D6 (Homo sapiens) (UniProt P10635); assay: qHTS Assay for Inhibitors and Substrates of Cytochrome P450 2D6 (AID 891);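 further: luciferin methyl ether substrate demethylated by CYP2D6 with NADPH regeneration; potency means the concentration at half of the fitted maximal effect; nearly all actives have a fitted effect of over 60% in size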
# Outline: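 Human CYP2D6 (5 nM) with 30 uM Luciferin-ME EGE (at Km) in 100 mM KPO4, compound preincubated 10 min, then NADPH regeneration system for 60 min at room temperature. Luciferin read by luminescence; normalized to 1.43 uM quinidine.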
# [19] = qHTS Assay for Identification of Small Molecule Antagonists for NFkB Signaling Pathway (AID 895; active means well fitted inhibition curve with a large enough effect in the signal ratio, with a control signal flat, not every such curve was filed as active; inconclusive means small, poorly fitted or top-dose-only effect, or effect the other way, or a change in a side signal; the % refers to the signal ratio; further: on the % scale 0 is the no-effect control and ±100 the full control effect); conditions: NFkB beta-lactamase reporter cells, FRET ratio 460/530, stimulated with 10 pM TNF alpha; activity change, negative = inhibition: at 38.3 µM (top of the series)
# Outline: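 NFkB-bla ME-180 cervical carcinoma cells with beta-lactamase reporter under NFkB response element; compounds added, then TNF alpha at 10 pM final (EC50), 5 h at 37 C. LiveBLAzer substrate 2 h, room temperature; emission 460/530 nm at 405 nm excitation.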
# [20] = qHTS Assay for Identification of Small Molecule Antagonists for Thrombopoietin (TPO) Signaling Pathway (AID 918); conditions: TPO-dependent cell signaling reporter, antagonist mode; activity change, negative = inhibition: at 38.5 µM (top of the series); further: nearly all actives have a fitted effect of over 60% in size
# Outline: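 Ba/F3 (murine, hTPO-R, GPIIb-luc reporter); overnight IL-3 withdrawal; cpd + TPO 26 pM final (EC50); 24 h 37 C/5% CO2; Steadylite luminescence after 10 min RT.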
# [21] = target: Muscarinic acetylcholine receptor M1 (Rattus norvegicus) (UniProt P08482); assay: qHTS Assay for Antagonists of Acetylcholine Muscarinic M1 Receptor: Measurement of IP-One Response (AID 944); further: nearly all actives have a fitted effect of over 75% in size
# [22] = qHTS for differential inhibitors of proliferation of Plasmodium falciparum line GB4 (AID 1816); conditions: Potency: Plasmodium falciparum GB4 proliferation inhibition;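 further: parasite growth measured after 72 h incubation; 0% = vehicle DMSO and -100% = reference inhibitor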
# [23] = qHTS for differential inhibitors of proliferation of Plasmodium falciparum line 3D7 (AID 1876);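 further: parasite growth measured after three days of culture; 0% = vehicle wells and -100% = reference inhibitor wells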
# [24] = target: Chromobox protein homolog 1 (Homo sapiens) (UniProt P83916); assay: qHTS Validation Assay for Inhibitors of HP1-beta Chromodomain Interactions with Methylated Histone Tails (AID 488953); further: potency means the concentration at half of the fitted maximal effect; nearly all actives have a fitted effect of over 50% in size
# Outline: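 50 nM HP1-beta + 50 nM biotin-H3(1-18)K9me3, PBS pH 7.4, 0.01% Tween-20, 30 min RT; compound added, 30 min RT; AlphaScreen beads 10 ug/mL final, 30 min dark; luminescence read.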
# [25] = Primary qHTS for small molecule stabilizers of the endoplasmic reticulum resident proteome: Secreted ER Calcium Modulated Protein (SERCaMP) assay (AID 1508630); conditions: SH-SY5Y GLuc-SERCaMP (Gaussia luciferase released on ER calcium loss) secretion, thapsigargin, luminescence; activity change, negative = inhibition: at 38.4 µM (top of the series) unless noted; further: potency means the concentration at half of the fitted maximal effect; on activity change, negative = inhibition: on the % scale 0 is the no-effect control and ±100 the full control effect
# Outline: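 GLuc-SERCaMP-expressing SH-SY5Y cells, pretreated 16 h with compound, are challenged with thapsigargin to empty ER calcium stores; after 4 h, coelenterazine is added directly to the medium and luminescence is imaged.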
# [26] = qHTS to identify inhibitors of the type 1 interferon - major histocompatibility complex class I in skeletal muscle: primary screen against the NCATS LOPAC collection (AID 1347405)
# Outline: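 Luminescence from HiBiT fused to endogenous HLA-B in CRISPR-engineered human myoblasts served as the read-out. Cells received 4.0 ng/ml IFN-beta plus compound (seven concentrations, 1:4.3 steps, highest 46 uM final) for 24 hrs before lytic detection.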
# Tags describe the fitted curve by direction and shape or compound fluorescence and quenching.
# UniProt P54132, sequence (P54132 whole entry, looked up): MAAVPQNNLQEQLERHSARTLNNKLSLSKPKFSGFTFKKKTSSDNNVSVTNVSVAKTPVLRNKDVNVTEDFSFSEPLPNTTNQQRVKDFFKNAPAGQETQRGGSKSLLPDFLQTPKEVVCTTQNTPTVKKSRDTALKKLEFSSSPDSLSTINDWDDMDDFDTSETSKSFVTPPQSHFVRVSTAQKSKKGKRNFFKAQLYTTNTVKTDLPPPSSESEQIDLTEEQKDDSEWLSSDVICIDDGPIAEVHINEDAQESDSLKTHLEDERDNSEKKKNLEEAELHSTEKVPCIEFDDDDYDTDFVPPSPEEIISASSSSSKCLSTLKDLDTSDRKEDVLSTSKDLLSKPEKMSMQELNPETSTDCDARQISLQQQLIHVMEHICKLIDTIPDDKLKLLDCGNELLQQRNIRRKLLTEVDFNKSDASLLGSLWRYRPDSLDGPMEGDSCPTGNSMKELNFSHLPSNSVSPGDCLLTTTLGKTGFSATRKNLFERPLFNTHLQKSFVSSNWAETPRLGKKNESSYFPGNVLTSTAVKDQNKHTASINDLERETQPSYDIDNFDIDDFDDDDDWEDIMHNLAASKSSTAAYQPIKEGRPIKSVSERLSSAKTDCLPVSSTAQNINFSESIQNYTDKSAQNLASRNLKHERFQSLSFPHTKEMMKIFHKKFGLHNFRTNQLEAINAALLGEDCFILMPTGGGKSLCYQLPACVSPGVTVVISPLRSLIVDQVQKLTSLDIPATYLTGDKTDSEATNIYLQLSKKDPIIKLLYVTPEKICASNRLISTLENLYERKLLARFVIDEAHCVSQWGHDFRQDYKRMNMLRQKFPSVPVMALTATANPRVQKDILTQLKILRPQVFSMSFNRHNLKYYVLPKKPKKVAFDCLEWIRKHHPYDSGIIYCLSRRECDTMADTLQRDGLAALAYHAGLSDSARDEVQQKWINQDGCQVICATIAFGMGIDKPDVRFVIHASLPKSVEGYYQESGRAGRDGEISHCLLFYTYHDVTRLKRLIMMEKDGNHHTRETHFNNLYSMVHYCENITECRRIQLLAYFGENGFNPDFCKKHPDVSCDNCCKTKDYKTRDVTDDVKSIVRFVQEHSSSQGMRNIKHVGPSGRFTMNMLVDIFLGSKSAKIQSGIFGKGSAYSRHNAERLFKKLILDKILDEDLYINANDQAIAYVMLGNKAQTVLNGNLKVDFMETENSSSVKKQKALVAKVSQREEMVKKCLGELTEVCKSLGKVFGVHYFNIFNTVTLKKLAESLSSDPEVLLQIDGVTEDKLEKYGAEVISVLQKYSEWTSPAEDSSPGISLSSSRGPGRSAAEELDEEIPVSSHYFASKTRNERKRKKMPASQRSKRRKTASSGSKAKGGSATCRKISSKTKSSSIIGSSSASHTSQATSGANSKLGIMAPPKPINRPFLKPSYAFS
# UniProt O15648, sequence (O15648 whole entry, looked up): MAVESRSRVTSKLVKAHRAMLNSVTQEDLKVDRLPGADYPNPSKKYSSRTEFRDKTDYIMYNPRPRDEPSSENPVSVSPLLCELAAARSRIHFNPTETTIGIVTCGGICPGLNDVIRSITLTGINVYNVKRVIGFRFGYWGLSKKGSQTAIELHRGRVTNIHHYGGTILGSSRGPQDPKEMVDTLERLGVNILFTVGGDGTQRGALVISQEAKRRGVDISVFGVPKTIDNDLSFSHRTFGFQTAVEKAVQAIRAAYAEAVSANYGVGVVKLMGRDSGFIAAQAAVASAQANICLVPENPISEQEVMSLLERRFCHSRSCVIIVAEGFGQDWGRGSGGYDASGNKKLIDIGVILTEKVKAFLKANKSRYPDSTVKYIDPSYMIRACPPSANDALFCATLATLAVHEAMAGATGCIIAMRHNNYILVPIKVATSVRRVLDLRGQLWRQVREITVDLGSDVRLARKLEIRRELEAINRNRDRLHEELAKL
# UniProt Q9UGL1, sequence (Q9UGL1 whole entry, looked up): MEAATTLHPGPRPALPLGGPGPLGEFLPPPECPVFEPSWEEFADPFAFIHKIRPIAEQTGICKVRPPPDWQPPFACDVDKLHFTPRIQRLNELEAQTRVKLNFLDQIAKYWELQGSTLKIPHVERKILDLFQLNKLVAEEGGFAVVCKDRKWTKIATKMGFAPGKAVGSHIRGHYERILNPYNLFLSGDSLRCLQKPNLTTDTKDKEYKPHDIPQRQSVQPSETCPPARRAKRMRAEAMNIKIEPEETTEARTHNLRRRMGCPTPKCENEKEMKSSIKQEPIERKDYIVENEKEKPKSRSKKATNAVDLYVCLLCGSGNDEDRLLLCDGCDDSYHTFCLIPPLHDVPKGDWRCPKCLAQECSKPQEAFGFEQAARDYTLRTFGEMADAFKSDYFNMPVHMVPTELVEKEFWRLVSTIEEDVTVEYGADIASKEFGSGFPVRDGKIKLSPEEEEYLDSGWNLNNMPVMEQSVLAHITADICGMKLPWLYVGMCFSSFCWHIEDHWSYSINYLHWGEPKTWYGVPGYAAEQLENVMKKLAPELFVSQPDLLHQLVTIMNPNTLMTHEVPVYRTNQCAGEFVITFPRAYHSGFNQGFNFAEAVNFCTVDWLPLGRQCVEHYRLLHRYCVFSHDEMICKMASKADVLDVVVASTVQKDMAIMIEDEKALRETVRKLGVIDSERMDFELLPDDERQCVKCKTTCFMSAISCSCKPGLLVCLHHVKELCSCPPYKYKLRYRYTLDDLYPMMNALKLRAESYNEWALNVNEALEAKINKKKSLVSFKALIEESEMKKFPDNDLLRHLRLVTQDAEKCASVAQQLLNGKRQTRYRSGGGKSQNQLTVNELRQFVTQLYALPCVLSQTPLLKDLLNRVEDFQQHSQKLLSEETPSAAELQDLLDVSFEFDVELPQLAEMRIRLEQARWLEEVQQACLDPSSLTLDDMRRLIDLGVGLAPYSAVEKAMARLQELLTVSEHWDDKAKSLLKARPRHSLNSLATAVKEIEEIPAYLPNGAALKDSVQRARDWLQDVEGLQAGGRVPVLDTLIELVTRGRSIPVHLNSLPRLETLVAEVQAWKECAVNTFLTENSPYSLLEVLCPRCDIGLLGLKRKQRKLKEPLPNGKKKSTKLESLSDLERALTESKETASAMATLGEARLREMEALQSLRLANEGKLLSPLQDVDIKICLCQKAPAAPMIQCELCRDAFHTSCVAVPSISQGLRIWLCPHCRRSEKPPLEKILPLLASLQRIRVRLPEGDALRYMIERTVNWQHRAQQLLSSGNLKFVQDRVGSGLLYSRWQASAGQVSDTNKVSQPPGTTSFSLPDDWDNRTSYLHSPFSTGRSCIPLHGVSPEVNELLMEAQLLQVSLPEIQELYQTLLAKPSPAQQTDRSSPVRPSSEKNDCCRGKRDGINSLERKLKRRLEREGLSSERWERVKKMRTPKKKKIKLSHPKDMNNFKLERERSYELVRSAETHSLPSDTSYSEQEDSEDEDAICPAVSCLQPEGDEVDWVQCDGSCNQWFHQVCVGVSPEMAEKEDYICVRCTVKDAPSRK
# UniProt P08684, sequence (P08684 whole entry, looked up): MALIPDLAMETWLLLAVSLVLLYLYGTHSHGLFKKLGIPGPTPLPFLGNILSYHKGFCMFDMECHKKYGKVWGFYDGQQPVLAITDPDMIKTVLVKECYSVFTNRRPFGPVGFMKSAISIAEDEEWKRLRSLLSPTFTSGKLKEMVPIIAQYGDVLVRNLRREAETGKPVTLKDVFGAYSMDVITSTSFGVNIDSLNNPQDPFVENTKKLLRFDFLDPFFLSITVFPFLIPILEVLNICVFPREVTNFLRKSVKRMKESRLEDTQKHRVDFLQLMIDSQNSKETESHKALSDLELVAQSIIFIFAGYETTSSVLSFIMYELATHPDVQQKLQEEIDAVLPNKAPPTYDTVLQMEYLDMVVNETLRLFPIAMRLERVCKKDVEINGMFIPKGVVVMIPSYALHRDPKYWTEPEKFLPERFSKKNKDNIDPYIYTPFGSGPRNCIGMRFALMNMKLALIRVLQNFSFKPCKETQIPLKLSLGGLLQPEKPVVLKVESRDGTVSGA
# UniProt Q07343, sequence (Q07343 whole entry, looked up): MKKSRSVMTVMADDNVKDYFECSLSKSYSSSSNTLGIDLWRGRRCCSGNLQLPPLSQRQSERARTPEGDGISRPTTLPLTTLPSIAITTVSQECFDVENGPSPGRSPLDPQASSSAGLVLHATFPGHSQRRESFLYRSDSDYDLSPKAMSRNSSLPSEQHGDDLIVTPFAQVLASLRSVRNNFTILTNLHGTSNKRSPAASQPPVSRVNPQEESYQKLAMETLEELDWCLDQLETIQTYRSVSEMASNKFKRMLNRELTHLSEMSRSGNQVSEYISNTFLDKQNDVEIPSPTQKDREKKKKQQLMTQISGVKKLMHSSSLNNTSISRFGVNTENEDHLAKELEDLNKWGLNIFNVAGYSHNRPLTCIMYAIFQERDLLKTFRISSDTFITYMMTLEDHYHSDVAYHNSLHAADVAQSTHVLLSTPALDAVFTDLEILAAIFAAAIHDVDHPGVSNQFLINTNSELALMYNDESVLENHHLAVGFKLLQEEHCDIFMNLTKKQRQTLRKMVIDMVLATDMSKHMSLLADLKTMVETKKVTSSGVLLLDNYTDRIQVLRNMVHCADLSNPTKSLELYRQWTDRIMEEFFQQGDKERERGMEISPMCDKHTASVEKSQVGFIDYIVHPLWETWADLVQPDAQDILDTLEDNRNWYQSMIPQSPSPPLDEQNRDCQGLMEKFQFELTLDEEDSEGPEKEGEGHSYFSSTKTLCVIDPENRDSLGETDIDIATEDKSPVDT
# UniProt Q13526, sequence (Q13526 whole entry, looked up): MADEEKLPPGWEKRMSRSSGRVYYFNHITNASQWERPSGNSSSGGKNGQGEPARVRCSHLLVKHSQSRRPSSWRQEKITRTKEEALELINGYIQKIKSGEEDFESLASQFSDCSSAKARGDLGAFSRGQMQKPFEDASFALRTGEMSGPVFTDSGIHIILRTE
# UniProt P83916, sequence (P83916 whole entry, looked up): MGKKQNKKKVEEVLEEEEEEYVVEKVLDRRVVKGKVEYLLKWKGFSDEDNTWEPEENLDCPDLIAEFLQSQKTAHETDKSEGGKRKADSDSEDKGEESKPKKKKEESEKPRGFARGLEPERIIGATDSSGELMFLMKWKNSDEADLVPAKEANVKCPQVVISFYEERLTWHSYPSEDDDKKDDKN
structure (smiles),measurement,setting,value
NC1(C(=O)O)CCc2cc(C(=O)O)ccc21 (configuration not stated),Potency,[1],inactive
same,Potency,[2],inactive
same,Potency,[3],"inconclusive: 0.631 µM [inhibitor, full curve]"
same,Potency,[4],"inconclusive: 33.8 µM [falling, single point]"
same,Potency,[5],inactive
same,Potency,[6],active: 16.8 µM
same,activation,[7],inactive: 1.27%
same,Potency,[8],"inconclusive: 10.7 µM [inhibitor, partial curve]"
same,Potency,[9],inactive
same,Potency,[10],"inconclusive: 26.7 µM [inhibitor, single point]"
same,Potency,[11],inactive
same,Potency,[12],"inconclusive: 28.2 µM [inhibitor, partial curve, poor fit]"
same,Potency,[13],"inconclusive: 56.2 µM [inhibitor, partial curve]"
same,Potency,[14],inactive
CCSC(=N)N,Potency,[15],inconclusive: 39.8 µM [decreasing]
same,Potency,[16],"inconclusive: 19 µM [inhibitor, single point]"
same,"activity change, negative = inhibition",[17],inconclusive: -30.5% [inhibitor]
same,Potency,[18],active: 3.98 µM
same,Potency,[19],inactive
same,"activity change, negative = inhibition",[20],inconclusive: -1.27% [phenotype inactive]
same,Potency,[21],inactive
same,Potency,[22],inactive
same,Potency,[23],inactive
same,Potency,[2],"inconclusive: 22.4 µM [inhibitor, partial curve, poor fit]"
same,Potency,[3],"inconclusive: 0.0028 µM [inhibitor, full curve]"
same,Potency,[4],"inconclusive: 23.9 µM [activator, single point]"
same,Potency,[24],"inconclusive: 8.44 µM [inhibitor, single point]"
same,Potency,[10],inactive
same,Potency,[11],inactive
same,Potency,[25],"inactive and inconclusive: 31.6 µM [inhibitor, full curve]"
CCC(CO)Nc1nc(NCc2ccccc2)c2ncn(C(C)C)c2n1 (configuration not stated),Potency,[10],inactive
same,Potency,[26],active: 15.8 µM
